According to the supplement of paper PMC11417369:
± gives the standard deviation of the averaged measurements. Some of the results follow.

Each sequence was assayed on PfAP2-G AP2 domain (GST-tagged) (assay: gcPBM binding intensity (ln(normalized median fluorescence intensity)); higher = stronger DNA binding).
Method in brief: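 After 1 h on an Agilent 4 × 180k array of primer-extended double-stranded 36-bp intergenic genomic probes and negative controls, bound GST-tagged P. falciparum DNA-binding domains were detected with Alexa488 anti-GST antibody and scanned at 488 nm. The domains had been expressed in E. coli, and binding took place in 1× PBS with 1% milk, 0.2 mg/ml BSA, 0.5% salmon testes DNA and 0.03% Triton X-100. Binding intensity is the highest Masliner-normalised natural-log median intensity across replicate spots of either probe orientation.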
For “TATTGTATGGTAGGATATGATGTTATTTGTTATAAT [CACACA_negctrl_site202]”, the “gcPBM binding intensity (ln)” value was 9.95 ± 0.099. For “TAGTTTTTTATAAAATTATTTATATAAAGGTAAAAA [CACACA_negctrl_site490]”, the “gcPBM binding intensity (ln)” value was 9.99 ± 0.16. In the case of “ATAAGAAAAGGACACACACACAAAAAAAAAAAAAAA [CACACA_site7351]”, the “gcPBM binding intensity (ln)” value is reported as 11.2 ± 0.98. “TGTTCTTATTTTATAAGCATATAATTAATCATAATG [CACACA_negctrl_site1493]” was tested, and the “gcPBM binding intensity (ln)” value was 9.775 ± 0.035. In the case of “TTTATTTATTATTGTTGTACACTTTTTATAAAAAAA [XGTACX_site5114]”, the “gcPBM binding intensity (ln)” value is reported as 11.5 ± 0.87. In the case of “ATGTATATAATATTATGTACATATATGAAATATTTT [XGTACX_site8168]”, the “gcPBM binding intensity (ln)” value is reported as 11 ± 0.57. With “ATATATTATATATATTTTAAGTAATTTGCAAAAAAT [GTGCAC_negctrl_site361]” the “gcPBM binding intensity (ln)” value was 9.81 ± 0.13. For “ATTTAAAAGAAATAATGTACGAATCATATTTGATAT [XGTACX_site1785]”, the “gcPBM binding intensity (ln)” value was 10.6 ± 0.42. “AATATATTATAATATACACACATATATGCTCTTTAA [CACACA_site4131]” was tested, and the “gcPBM binding intensity (ln)” value was 9.87 ± 0.028. “ATTTATTAACCATATACACACATATATTTGTATTTA [CACACA_site6744]” was tested, and the “gcPBM binding intensity (ln)” value was 9.96 ± 0.18. With “ATAGTATCTGGTAGCTGTACGAGTCGTAGAGTGCAG [XGTACX_site2020]” the “gcPBM binding intensity (ln)” value was 11.3 ± 0.75. For “ATATATATATATATATGTACGTACTCAGTTATGCCT [XGTACX_site453]”, the “gcPBM binding intensity (ln)” value was 11.7 ± 1.2. “TTCCCTAATATTTGTTGTACTTGTTATATTTTTTTT [XGTACX_site5994]” was tested, and the “gcPBM binding intensity (ln)” value was 11.3 ± 0.76. “TATATTTGTAAGAAGAGTACTAAAAAAAGAATAAAG [XGTACX_site8704]” was tested, and the “gcPBM binding intensity (ln)” value was 11.3 ± 0.63. For “TAATATCAATTTTTATGTACTTATATATATATATAT [XGTACX_site5879]”, the “gcPBM binding intensity (ln)” value was 11.3 ± 0.84. “AGTAGTCTGGAGAAGAGTACACAGTATCTGGTAACA [XGTACX_site2032]” was tested, and the “gcPBM binding intensity (ln)” value was 11.4 ± 0.97. “ATTGAGAGAAAAAAATGTACTTGATCAAAATGGATA [XGTACX_site1649]” was tested, and the “gcPBM binding intensity (ln)” value was 10.9 ± 0.5. In the case of “TTATTATATAAAGTTTCACACATTATTTGTTCAAAC [CACACA_site5218]”, the “gcPBM binding intensity (ln)” value is reported as 10 ± 0.11. In the case of “ATATGAAGTATCGAATTAAGGGCAACAAATAAATTA [CACACA_negctrl_site1116]”, the “gcPBM binding intensity (ln)” value is reported as 10.4 ± 0.35. “AAAAAAATAATATAAATAATGAAAAGATATAAATAA [GTGCAC_negctrl_site432]” was tested, and the “gcPBM binding intensity (ln)” value was 9.65 ± 0.22. In the case of “AATATAAGCAAATACACACACACATATAAATATGTA [CACACA_site7741]”, the “gcPBM binding intensity (ln)” value is reported as 10 ± 0.11. For “TACATATATAAATATGTACACACATATGTATGATCT [CACACA_site9284]”, the “gcPBM binding intensity (ln)” value was 11.2 ± 0.81. With “TTATATATGACTAACGGTTTTTTTTTTTTTTTTTTT [CACACA_negctrl_site576]” the “gcPBM binding intensity (ln)” value was 10.7 ± 0.37. For “GTGTATATATGTTATACACACAAAAATATTTTGTAT [CACACA_site265]”, the “gcPBM binding intensity (ln)” value was 10.1 ± 0.057. “AAAAATCATATAGGTTGTACGGGTAGTTTATTTTAT [XGTACX_site6936]” was tested, and the “gcPBM binding intensity (ln)” value was 11 ± 0.54. In the case of “ATTTTGTAAAAGGTCATACACACATATTCAAAAGAA [CACACA_site2946]”, the “gcPBM binding intensity (ln)” value is reported as 10.3 ± 0.29. In the case of “ACAAAAAAAAAAAAAAAAAAAAAAAAAAAATAATAA [CACACA_negctrl_site1640]”, the “gcPBM binding intensity (ln)” value is reported as 9.62 ± 0.18. “AAAATATATTAAGGCACACACATACATATTTATATA [CACACA_site7707]” was tested, and the “gcPBM binding intensity (ln)” value was 10.1 ± 0.14. With “AGATCAATAATGACAAGTACACAAAATAACATTTAA [XGTACX_site6968]” the “gcPBM binding intensity (ln)” value was 11.4 ± 0.91. In the case of “TACATACAGAAACACACACACACATATATATATATA [CACACA_site2919]”, the “gcPBM binding intensity (ln)” value is reported as 10.1 ± 0.3. In the case of “AAAGAATAATTAAATACACACATATTACAGTAAAAA [CACACA_site2450]”, the “gcPBM binding intensity (ln)” value is reported as 10.03 ± 0.092. “CGCACCCACAGACACACACACACATATATATATATA [CACACA_site2202]” was tested, and the “gcPBM binding intensity (ln)” value was 10.2 ± 0.3. With “AATATATATTAAATATGTACTTATTTTTTGGTTGCT [XGTACX_site3613]” the “gcPBM binding intensity (ln)” value was 11.5 ± 0.86. “TATAAATTAAGATAACGTACATATAATAATATAAAC [XGTACX_site487]” was tested, and the “gcPBM binding intensity (ln)” value was 11.2 ± 0.59. For “TGCATAATTAAAAATGGTACACTGTATTTATAATAT [XGTACX_site1575]”, the “gcPBM binding intensity (ln)” value was 11.2 ± 0.85. “TGTACAGTATATACAACACACATTTGTATAAATATA [CACACA_site1002]” was tested, and the “gcPBM binding intensity (ln)” value was 10.46 ± 0.035. “TGTACACCCAGAAATGCACACACATATATATATATA [CACACA_site8716]” was tested, and the “gcPBM binding intensity (ln)” value was 10.9 ± 0.49. For “TATATATATTTTATGTGTACTCAATGTTATAACGCA [XGTACX_site8360]”, the “gcPBM binding intensity (ln)” value was 11.6 ± 1. “AATAGAGTTGAATGCACACATACAAATTTTTAGTTT [CACACA_site3564]” was tested, and the “gcPBM binding intensity (ln)” value was 9.79 ± 0.21. “AAAAAAATACATACGTGTACCCACATATATGTATCT [XGTACX_site5319]” was tested, and the “gcPBM binding intensity (ln)” value was 11.3 ± 0.77. With “TTGAAGGTGGCAATGTGTACATAGAATAACCAGTGC [XGTACX_site4738]” the “gcPBM binding intensity (ln)” value was 11.4 ± 0.91. With “ACAATTGCATCTATCACACATACATACATACATACA [CACACA_site5063]” the “gcPBM binding intensity (ln)” value was 10.6 ± 0.42. With “AAAAAAAAAAAACATTGTACGCACATTTTATATGTC [XGTACX_site6974]” the “gcPBM binding intensity (ln)” value was 11.6 ± 0.93. “GTTTCTACTTATATAACAGGACACGTGTGAATAATT [TGCATGCA_negctrl_site430]” was tested, and the “gcPBM binding intensity (ln)” value was 10.6 ± 0.44.
